Results published in publication PMC4336329 (PLoS ONE, 2015).
Among all 310,000 compounds or so, about 14,000 (4.5%) showed an effect of 50% or more. The effect is printed as a negative number. This is one part of the list.

molecular target: human ether-à-go-go-related gene (hERG) potassium channel (human, UniProt Q12809); assay: primary screen, population patch clamp on CHO cells stably expressing hERG
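Also: peak tail current of the secondary pulse compared with the same well before compound.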

human ether-à-go-go-related gene (hERG) potassium channel, sequence (Q12809 whole entry, looked up): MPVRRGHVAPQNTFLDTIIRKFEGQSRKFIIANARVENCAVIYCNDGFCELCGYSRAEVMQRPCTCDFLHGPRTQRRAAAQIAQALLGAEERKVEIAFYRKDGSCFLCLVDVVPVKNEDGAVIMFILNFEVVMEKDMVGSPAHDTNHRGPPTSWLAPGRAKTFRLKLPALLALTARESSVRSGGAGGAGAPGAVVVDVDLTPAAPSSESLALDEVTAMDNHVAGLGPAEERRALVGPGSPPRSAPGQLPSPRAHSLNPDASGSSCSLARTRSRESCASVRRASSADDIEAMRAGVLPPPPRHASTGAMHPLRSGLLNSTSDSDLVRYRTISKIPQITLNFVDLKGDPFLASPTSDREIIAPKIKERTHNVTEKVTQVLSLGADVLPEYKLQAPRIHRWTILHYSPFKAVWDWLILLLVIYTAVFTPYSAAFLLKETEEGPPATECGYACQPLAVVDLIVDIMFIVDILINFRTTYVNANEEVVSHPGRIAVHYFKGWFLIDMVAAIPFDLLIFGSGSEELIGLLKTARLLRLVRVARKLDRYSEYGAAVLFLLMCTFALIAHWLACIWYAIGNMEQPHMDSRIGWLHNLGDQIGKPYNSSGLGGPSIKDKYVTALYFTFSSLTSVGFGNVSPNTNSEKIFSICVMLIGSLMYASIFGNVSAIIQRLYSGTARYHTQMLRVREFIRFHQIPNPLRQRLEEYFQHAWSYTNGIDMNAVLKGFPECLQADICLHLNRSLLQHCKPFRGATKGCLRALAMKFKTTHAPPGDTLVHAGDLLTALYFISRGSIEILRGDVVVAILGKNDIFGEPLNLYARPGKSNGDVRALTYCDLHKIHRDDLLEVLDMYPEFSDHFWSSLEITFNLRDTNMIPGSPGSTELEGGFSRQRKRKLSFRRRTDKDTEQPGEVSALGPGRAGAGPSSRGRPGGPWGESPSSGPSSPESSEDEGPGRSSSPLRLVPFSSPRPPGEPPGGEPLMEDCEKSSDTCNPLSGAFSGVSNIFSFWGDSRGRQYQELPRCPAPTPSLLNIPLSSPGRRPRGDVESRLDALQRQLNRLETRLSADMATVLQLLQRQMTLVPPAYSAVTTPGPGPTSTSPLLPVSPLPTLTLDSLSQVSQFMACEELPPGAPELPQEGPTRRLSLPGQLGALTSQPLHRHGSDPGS

Row | SMILES | hERG current change (%, negative = inhibition) at 10uM [%]
1 | Cc1cccc(-n2ncc3c(NC4CCCCC4)ncnc32)c1 | -5.1
2 | Cc1ccc(C2NC(c3ccc(C)cc3)C(C)C(=NO)C2C)cc1 (centres unmarked) | -1.33
3 | CC(C)(C)C(=O)N1CCC(O)(CS(=O)(=O)Cc2ccc(Cl)cc2)CC1 | -3.46
4 | CCOC(=O)c1c(NC(=O)/C=C/c2ccc3c(c2)OCO3)sc(C)c1CC | 18.6
5 | NNC(=O)c1sccc1OCc1ccc(Cl)cc1Cl | -18.5
6 | CSc1ccc(CNc2cccc3ccccc23)cc1 | 2.23
7 | COc1ccc(C)cc1S(=O)(=O)n1ccnc1C | 13.1
8 | CC(=O)n1nc(-c2ccccc2)nc1NCc1cccs1 | 8.35
9 | Cc1nn(CC(=O)Nc2ccc(Cl)c(S(=O)(=O)N(C)C)c2)c(C)c1[N+](=O)[O-] | -61.3
10 | COc1ccc(C(=O)Nc2c(C(C)(C)C)nn(C)c2C(C)(C)C)cc1 | 7.87
11 | Cc1ccc(OCC(=O)NNC(=O)Cc2ccc(S(=O)(=O)N3CCOCC3)s2)cc1 | 2.78
12 | CCOc1ccccc1/C=c1\sc2nc(-c3ccco3)nn2c1=O | 15.9
13 | COc1ccc(C2(CNC(=O)c3ccc(OCC(C)C)cc3)CCOCC2)cc1 | -18.6
14 | Cc1ccc(N(CC(=O)NCc2ccc(F)cc2)C(=O)c2ccco2)cc1C | -10.8
15 | CN(C)CCNC(=O)CN1C(=O)CSc2ccc(S(=O)(=O)N3CCCCC3)cc21 | 12.5
16 | Cc1c2cnn(CC(=O)N3CCC4(CC3)OCCO4)c(=O)c2c(C)n1Cc1cccc(Cl)c1 | 1.18
17 | CC(=O)N1N=C(c2c(O)n(C)c(=O)n(C)c2=O)CC1c1ccccc1 (centres unmarked) | 17.5
18 | Cn1nc(C(=O)NCc2cccc(Cl)c2)c2c1-c1ccccc1S(=O)(=O)C2 | 9.4
19 | CCC(=O)Nc1cccc(-n2nnnc2SCC(=O)c2ccc(C)c(C)c2)c1 | -13.5
20 | Cc1ccc(NC(=O)CN2C(=O)COc3ccc(S(=O)(=O)N4CCOCC4)cc32)cc1F | 19.9
21 | COc1ccc(OC)c(S(=O)(=O)NCc2ccccn2)c1 | 11.9
22 | O=C(Oc1cc(=O)oc2ccccc12)c1ccco1 | 9.06

Row | SMILES | hERG current change (%, negative = inhibition) at 10uM [%]
23 | C=CCNC(NC(=O)c1ccccc1)(C(=O)OCC)C(F)(F)F (centres unmarked) | 19.2
24 | O=c1c2ccccc2nc(-c2ccccc2)n1-c1ccncc1 | -14.9
25 | Cc1cccc(C)c1NC(=O)CN(C)c1ccc(C(F)(F)F)cn1 | 1.18
26 | CCOc1ccc(OCC)c(NC(=O)C2CCCN(c3nc(C)cc(C)n3)C2)c1 (centres unmarked) | -3.69
27 | Nc1c(S(=O)(=O)c2ccccc2)nnn1-c1ccccc1 | 5.69
28 | CCCNC(=O)C(NS(=O)(=O)c1cccc2nsnc12)c1ccccc1 (centres unmarked) | 0.65
29 | COc1ccc(-c2[nH]c3ccccc3c2SCCNC(=O)c2cc3ccccc3oc2=O)cc1 | -0.175
30 | CC(NC(=O)CN(c1ccc(Br)cc1)S(C)(=O)=O)c1ccccc1 (centres unmarked) | -4.37
31 | CC(C)[C@H](NC(=O)N1c2ccccc2NC(=O)[C@@H]1C(C)C)C(=O)N[C@H](C(=O)O)c1ccccc1 | -5.05
32 | Cc1nc(SCC(N)=O)c([N+](=O)[O-])[nH]1 | -31.7
33 | CC(C)N(C(=O)CSc1nnc(Cc2csc(Nc3ccccc3)n2)o1)C(C)C | 18.1
34 | O=C(CSc1ccccn1)c1ccc(F)cc1 | -22.6
35 | COC(=O)[C@@H]1[C@@H](C)OC(=O)N[C@H]1c1ccccc1 | -11.7
36 | COc1cc(/C=C2\SC(N3CCc4ccccc4C3)=NC2=O)cc(OC)c1OC | -8.19
37 | COc1ccccc1NC(=O)C1CCN(S(=O)(=O)c2ccc3c(c2)NC(=O)C(C)S3)CC1 (centres unmarked) | 0.624
38 | COc1ccc2oc(C(=O)N(CC(C)C)C3CCS(=O)(=O)C3)c(C)c2c1 (centres unmarked) | -23.5
39 | COc1cccc(OC)c1C(=O)OCC(=O)Nc1ccc(OC(F)(F)F)cc1 | -28.9
40 | O=C(N/C(=C/c1ccc(Br)cc1)C(=O)N1CCCC1)c1ccccc1F | -71.5
41 | CC(NC(=O)c1cc2ccccc2o1)c1cccs1 (centres unmarked) | -15.6
42 | Cc1nnc2sc(SCC(=O)Nc3ccc(Br)cc3)nn2c1=O | 2.87
43 | Cc1ccc(S(=O)(=O)NC(C(=O)O)c2ccccc2)cc1 (centres unmarked) | 15.1
44 | FC(F)(F)c1cnc(Oc2ccc(-c3nnco3)cc2)c(Cl)c1 | 7.1

Row | SMILES | hERG current change (%, negative = inhibition) at 10uM [%]
45 | NC(=O)c1nsc(C(=O)N(c2ccccc2)C(C(=O)NC2CCCCC2)c2ccc(O)cc2)c1N (centres unmarked) | 2.65
46 | CC(=O)Nc1ccc(NC(=O)C2CCCN2/C=C/C(=O)C(F)(F)F)cc1 (centres unmarked) | 7.83
47 | COC(=O)N/N=C/c1cc(Cl)cc(Cl)c1OCc1ccc(F)cc1 | 3.82
48 | COc1ccc(S(=O)(=O)Nc2nc3n(n2)C(c2ccc(Cl)cc2)CC(=O)N3)cc1 (centres unmarked) | 7.32
49 | O=C(Nc1ccccc1C(=O)NCc1cccnc1)c1cccc([N+](=O)[O-])c1 | -1.36
50 | O=C(COc1ccccc1)N1CCN=C1SCc1ccccc1 | -16.8
51 | O=C(CN1C(=O)c2ccc([N+](=O)[O-])cc2C1=O)NCc1ccco1 | 12.4
52 | Cn1cc(S(=O)(=O)NC(c2ccccc2)c2ccccc2)c(=O)n(C)c1=O | -3.83
53 | O=C1c2ccccc2C(=O)N1CC(=O)N1c2ccccc2Sc2ccccc21 | -28.7
54 | O=C(Cc1ccc(Cl)cc1)Nc1ccc(N2CCN(C(=O)c3ccco3)CC2)c(Cl)c1 | -10.4
55 | CCOc1cccc(OCCOCCOc2ccccc2C(C)=O)c1 | -7.23
56 | OCC[C@@H]1C[C@@H](O)[C@H](O)[C@@]2(CCc3ccccc3CO2)O1 | 12.2
57 | O=C(NCc1cccnc1)Nc1ccccc1Cl | 17.9
58 | COc1ccc(-n2c(SCC(=O)Nc3ccc(C(=O)O)cc3)nnc2-c2ccccc2)cc1OC | -3.47
59 | CCCN(CCC)CCN1C(=O)C2C(C(=O)Nc3cccc(SC)c3)C3C=CC2(O3)C1C(=O)NC1CCCCC1 (centres unmarked) | -68.2
60 | CCOC(=O)c1ccc(CN2C(=O)c3ccccc3S2(=O)=O)cc1 | -10.8
61 | COc1ccc(CCN(C)CCC(=O)Nc2c(C)cc(C)cc2C)cc1OC | -58.8
62 | CCn1c(N2CCC(Cc3ccccc3)CC2)nc2c1c(=O)[nH]c(=O)n2C | -39
63 | O=C(NNC(=S)NC(=O)c1cccc([N+](=O)[O-])c1)c1ccc(Br)cc1 | 17.7
64 | O=C(NCCCN1CCOCC1)C(=O)N/N=C/c1ccccc1O | 4.52
65 | COc1ccc(CNC(C)(C)C)cc1Cl.Cl | -21.6
66 | COc1ccc2cc(C(=O)N3CCN(C)CC3)[nH]c2c1 | 3.05

Row | SMILES | hERG current change (%, negative = inhibition) at 10uM [%]
67 | CN1CCN(S(=O)(=O)c2ccc(Br)s2)CC1 | -8.26
68 | O=C(NCCc1ccccc1)C1CCN(c2nc3ccccc3o2)CC1 | -25.9
69 | CC(=O)Nc1ccc(SC[C@H](c2ccccc2)N2CCN(CCc3ccccc3)CCC2=O)cc1 | -75.1
70 | CC(c1ccccc1F)n1cc(C(=O)NCCCn2ccnc2)nn1 (centres unmarked) | 8.49
71 | O=C(O)c1ccccc1N/C=C\[N+](=O)[O-] | 13.9
72 | O=S(=O)(Cc1ccccc1)N1CCCC(c2nc(-c3ccc(F)cc3)no2)C1 (centres unmarked) | -3.59
73 | COc1ccc(OC)c(C2CC(=O)N3CN(c4cccc(Cl)c4)CSC3=C2C#N)c1 (centres unmarked) | 19.1
74 | CCn1cc(C(=O)N[C@@H](CCSC)C(=O)NCCCn2ccnc2)c(=O)c2cc3c(cc21)OCO3 | 24.7
75 | O=C(NCCO)c1ccc(-c2nnc(N3CCOCC3)c3ccccc23)cc1 | 6.26
76 | Cc1ccc(S[C@@H](CCN2CC[C@H](NC(=O)OCc3ccccc3)CCC2=O)c2ccccc2)cc1 | -26.1
77 | Cc1ccc(C(=O)C(=S)N2CCOCC2)cc1 | -0.0216
78 | O=C1CCC(=O)N1OCCOc1ccccc1 | 3.24
79 | CCCOc1ccc(Cc2c(Cl)nc(SC)nc2N(C)C)cc1 | 14.2
80 | Nc1cc(=O)[nH]c(N)n1 | 15.9
81 | O=C(Cn1ccc([N+](=O)[O-])n1)NCc1ccco1 | 2.96
82 | Cc1ccc(S(C)(=O)=N/C=C2\C(=O)c3sccc3N(C)S2(=O)=O)cc1 (centres unmarked) | -36.2
83 | COc1ccc(C(=O)NNC(=O)c2ccc(S(=O)(=O)N3CCCCC3)cc2)cc1 | 0.716
84 | Cc1cccc(C)c1NC(=O)CN1C(=O)C2CC=CCC2C1=O (centres unmarked) | 14.4
85 | COc1ccc(Cn2nnc3c(=O)[nH]c(C4CCCN(C(=O)c5ccccc5)C4)nc32)cc1 (centres unmarked) | -22.5
86 | CC(C)CCNC(=O)CNC(=S)N(CCCN1CCOCC1)Cc1cccs1 | -32.6
